This is one part of the list.

The assay deals with T1, MBP-FoxP1dN (Mus musculus, UniProt P58462 326-579).
T1 sequence: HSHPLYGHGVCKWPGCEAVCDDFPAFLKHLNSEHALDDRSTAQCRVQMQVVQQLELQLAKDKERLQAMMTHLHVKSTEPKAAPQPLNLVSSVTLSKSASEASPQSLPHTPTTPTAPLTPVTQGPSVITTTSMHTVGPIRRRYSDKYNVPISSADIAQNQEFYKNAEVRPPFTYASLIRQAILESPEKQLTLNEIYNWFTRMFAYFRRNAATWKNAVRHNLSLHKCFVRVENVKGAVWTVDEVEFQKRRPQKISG
Kind of assay: PD-seq (MBP pull-down with sequencing); 20 mM Tris-HCl pH 7.5, 100 mM NaCl, 1.5 mM MgCl2, 0.4 uM protein, 0.1 uM dsDNA library, 30 min, room temperature, amylose pull-down; high values mean tight binding. The note with it: protein: recombinant; tags: His6-MBP; chain copies: 2; dsDNA, one strand shown. Put shortly:
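In Tris pH 7.5 buffer with NaCl and MgCl2, 0.4 µM His6-MBP-tagged mouse FoxP3 or FoxP1 fragment lacking the N-terminus, from E. coli, met 0.1 µM Klenow-filled double-stranded degenerate DNA library for 30 min at room temperature. Three washes on amylose resin followed capture of the complexes, then proteinase K release of DNA, PCR barcoding and Illumina sequencing. Binding is taken as pooled-replicate reads-per-million enrichment of pull-down relative to input.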
In the case of “GATGATTGTTCTCCCAGCTGATGAATTCGCAGCCTCGAGTAAACAAATTTTCCTAATCTTTCTGTTCAAGCGCCATCTAC”, the binding signal is 0.832 RPM ratio (pull-down/input).

As to “GATGATTGTTCTCCCAGCTGATGAATTCTATATGTCGAGTAAACAAATTTTCCTAATCTTTCTGTTCAAGCGCCATCTAC”, the binding signal is 0.966 RPM ratio (pull-down/input).

Take “GATGATTGTTCTCCCAGCTGATGAATTTTTGATGTCGAGTAAACAAATTTTCCTAATCTTTCTGTTCAAGCGCCATCTAC”: the binding signal was 1.3 RPM ratio (pull-down/input).

Consider “GATGATTGTTCTCCCAGCTGATGAATTCCAAGCGTCGAGTAAACAAATTTTCCTAATCTTTCTGTTCAAGCGCCATCTAC”, for which the binding signal was 0.867 RPM ratio (pull-down/input).

For the sequence “GATGATTGTTCTCCCAGCTGATGAATTTACTCCATCGAGTAAACAAATTTTCCTAATCTTTCTGTTCAAGCGCCATCTAC”, the binding signal was 1.29 RPM ratio (pull-down/input).

On to “GATGATTGTTCTCCCAGCTGATGAATTAACGAGGTCGAGTAAACAAATTTTCCTAATCTTTCTGTTCAAGCGCCATCTAC”, for which the binding signal is 0.865 RPM ratio (pull-down/input).

As for “GATGATTGTTCTCCCAGCTGATGAATTGTCTACGTCGAGTAAACAAATTTTCCTAATCTTTCTGTTCAAGCGCCATCTAC”, the binding signal was 1.05 RPM ratio (pull-down/input).

Take “GATGATTGTTCTCCCAGCTGATGAATTGAAATCCTCGAGTAAACAAATTTTCCTAATCTTTCTGTTCAAGCGCCATCTAC”: the binding signal was 0.722 RPM ratio (pull-down/input).

Turning to “GATGATTGTTCTCCCAGCTGATGAATTGAGTTGTTCGAGTAAACAAATTTTCCTAATCTTTCTGTTCAAGCGCCATCTAC”, the binding signal is 1.16 RPM ratio (pull-down/input).

Regarding “GATGATTGTTCTCCCAGCTGATGAATTGTAAATCTCGAGTAAACAAATTTTCCTAATCTTTCTGTTCAAGCGCCATCTAC”, the binding signal was 1.16 RPM ratio (pull-down/input).

Regarding “GATGATTGTTCTCCCAGCTGATGAATTCGCGTGATCGAGTAAACAAATTTTCCTAATCTTTCTGTTCAAGCGCCATCTAC”, the binding signal was 0.952 RPM ratio (pull-down/input).

In the case of “GATGATTGTTCTCCCAGCTGATGAATTAGATTTTTCGAGTAAACAAATTTTCCTAATCTTTCTGTTCAAGCGCCATCTAC”, the binding signal was 0.869 RPM ratio (pull-down/input).

As for “GATGATTGTTCTCCCAGCTGATGAATTGCTTCACTCGAGTAAACAAATTTTCCTAATCTTTCTGTTCAAGCGCCATCTAC”, the binding signal is 1.01 RPM ratio (pull-down/input).

Turning to “GATGATTGTTCTCCCAGCTGATGAATTTATCGGTTCGAGTAAACAAATTTTCCTAATCTTTCTGTTCAAGCGCCATCTAC”, the binding signal was 1.09 RPM ratio (pull-down/input).

Take “GATGATTGTTCTCCCAGCTGATGAATTTATCGTGTCGAGTAAACAAATTTTCCTAATCTTTCTGTTCAAGCGCCATCTAC”: the binding signal was 1.22 RPM ratio (pull-down/input).

For the sequence “GATGATTGTTCTCCCAGCTGATGAATTCTCATGTTCGAGTAAACAAATTTTCCTAATCTTTCTGTTCAAGCGCCATCTAC”, the binding signal was 0.861 RPM ratio (pull-down/input).

On to “GATGATTGTTCTCCCAGCTGATGAATTTCTGACATCGAGTAAACAAATTTTCCTAATCTTTCTGTTCAAGCGCCATCTAC”, for which the binding signal is 0.96 RPM ratio (pull-down/input).

In the case of “GATGATTGTTCTCCCAGCTGATGAATTGCGGATTTCGAGTAAACAAATTTTCCTAATCTTTCTGTTCAAGCGCCATCTAC”, the binding signal is 1.14 RPM ratio (pull-down/input).

As to “GATGATTGTTCTCCCAGCTGATGAATTGGAGGCTTCGAGTAAACAAATTTTCCTAATCTTTCTGTTCAAGCGCCATCTAC”, the binding signal was 0.93 RPM ratio (pull-down/input).

As for “GATGATTGTTCTCCCAGCTGATGAATTGGGCAGGTCGAGTAAACAAATTTTCCTAATCTTTCTGTTCAAGCGCCATCTAC”, the binding signal was 0.719 RPM ratio (pull-down/input).

On to “GATGATTGTTCTCCCAGCTGATGAATTCAGACCATCGAGTAAACAAATTTTCCTAATCTTTCTGTTCAAGCGCCATCTAC”, for which the binding signal was 0.799 RPM ratio (pull-down/input).

Consider “GATGATTGTTCTCCCAGCTGATGAATTGACCTGATCGAGTAAACAAATTTTCCTAATCTTTCTGTTCAAGCGCCATCTAC”, for which the binding signal was 0.942 RPM ratio (pull-down/input).

Take “GATGATTGTTCTCCCAGCTGATGAATTCGTAGTATCGAGTAAACAAATTTTCCTAATCTTTCTGTTCAAGCGCCATCTAC”: the binding signal is 1 RPM ratio (pull-down/input).

On to “GATGATTGTTCTCCCAGCTGATGAATTAAGTTTATCGAGTAAACAAATTTTCCTAATCTTTCTGTTCAAGCGCCATCTAC”, for which the binding signal is 1.55 RPM ratio (pull-down/input).

For the sequence “GATGATTGTTCTCCCAGCTGATGAATTCCATCCGTCGAGTAAACAAATTTTCCTAATCTTTCTGTTCAAGCGCCATCTAC”, the binding signal was 0.766 RPM ratio (pull-down/input).

As for “GATGATTGTTCTCCCAGCTGATGAATTAACAAACTCGAGTAAACAAATTTTCCTAATCTTTCTGTTCAAGCGCCATCTAC”, the binding signal is 1.31 RPM ratio (pull-down/input).

Take “GATGATTGTTCTCCCAGCTGATGAATTGCGCGTTTCGAGTAAACAAATTTTCCTAATCTTTCTGTTCAAGCGCCATCTAC”: the binding signal was 1.19 RPM ratio (pull-down/input).

As to “GATGATTGTTCTCCCAGCTGATGAATTGTTCCGATCGAGTAAACAAATTTTCCTAATCTTTCTGTTCAAGCGCCATCTAC”, the binding signal is 1.04 RPM ratio (pull-down/input).

Consider “GATGATTGTTCTCCCAGCTGATGAATTCCTCCACTCGAGTAAACAAATTTTCCTAATCTTTCTGTTCAAGCGCCATCTAC”, for which the binding signal is 0.831 RPM ratio (pull-down/input).

Take “GATGATTGTTCTCCCAGCTGATGAATTAGGGACGTCGAGTAAACAAATTTTCCTAATCTTTCTGTTCAAGCGCCATCTAC”: the binding signal is 0.843 RPM ratio (pull-down/input).

“GATGATTGTTCTCCCAGCTGATGAATTTTTGAATTCGAGTAAACAAATTTTCCTAATCTTTCTGTTCAAGCGCCATCTAC”: the binding signal was 0.974 RPM ratio (pull-down/input).

The values above are taken from PMC12820563, “FoxP3 forms a head-to-head dimer in vivo and stabilizes its multimerization on adjacent microsatellites”.
